Results from article PMC6518801.
These are yes or no findings as the source states them, for the method shown. In cells and extracts the contact can be indirect. Some binding calls cover weakened binding; strength is not graded here. For some assays here: Tags and fused reporters may be left off the sequences shown. Each block holds one binder with its values, some of them ahead of it.

Experiments:
[1] = target: HA-tagged wild-type c-Cbl (UniProt P22681); experiment: co-IP; 293T cells co-transfected with FLAG-TRAF6 and HA-c-Cbl constructs, 36 h; lysis in 0.5% Nonidet P-40, 50 mM Tris-HCl pH 8.0, 150 mM NaCl, 1 mM EDTA; IP with anti-HA or anti-FLAG Ab 2 h at 4 °C, protein G-agarose; western blot with anti-FLAG or anti-HA
HA c-Cbl-1-357 = HA c-Cbl-1-357 (UniProt P22681); experiment: as above
[2] = target: HA-tagged c-Cbl G306E mutant (UniProt P22681); experiment: as above
HA c-Cbl 1-436 = HA c-Cbl 1-436 (UniProt P22681); experiment: as above
HA c-Cbl 1-480 = HA c-Cbl 1-480 (UniProt P22681); experiment: as above
HA c-Cbl 1-421 = HA c-Cbl 1-421 (UniProt P22681); experiment: as above
HA-c-Cbl 1-655 = HA-c-Cbl 1-655 (UniProt P22681); experiment: as above
[3] = target: endogenous c-Cbl (not stated (endogenous in osteoclasts and bone marrow macrophages)) (UniProt P22682); experiment: co-IP; endogenous proteins; bone marrow macrophages (M-CSF 30 ng/ml, three days), stimulated with IFN-γ (20 ng/ml) for the indicated times; 0.5% Nonidet P-40 lysis buffer; IP with anti-cbl Ab, blot with anti-TRAF6
[4] = target: endogenous c-Cbl (not stated (endogenous in osteoclasts and bone marrow macrophages)) (UniProt P22682); experiment: co-IP; endogenous proteins; osteoclasts differentiated from bone marrow precursors, stimulated with RANKL for the indicated times; 0.5% Nonidet P-40 lysis buffer; IP with anti-cbl Ab, blot with anti-TRAF6

B1: Flag-TRAF6-212-530 (domain or fragment, UniProt P70196 212-530)
chain: NIICEYCGTILIREQMPNHYDLDCPTAPIPCTFSVFGCHEKMQRNHLARHLQENTQLHMRLLAQAVHNVNLALRPCDAASPSRGCRPEDPNYEETIKQLESRLVRQDHQIRELTAKMETQSMYVGELKRTIRTLEDKVAEMEAQQCNGIYIWKIGNFGMHLKSQEEERPVVIHSPGFYTGRPGYKLCMRLHLQLPTAQRCANYISLFVHTMQGEYDSHLPWPFQGTIRLTILDQSEALIRQNHEEVMDAKPELLAFQRPTIPRNPKGFGYVTFMHLEALRQGTFIKDDTLLVRCEVSTRFDMGGLRKEGFQPRSTDAGV
binding [1]: binds

B2: Flag-TRAF6-289-530 (domain or fragment, UniProt P70196 289-530)
chain: AASPSRGCRPEDPNYEETIKQLESRLVRQDHQIRELTAKMETQSMYVGELKRTIRTLEDKVAEMEAQQCNGIYIWKIGNFGMHLKSQEEERPVVIHSPGFYTGRPGYKLCMRLHLQLPTAQRCANYISLFVHTMQGEYDSHLPWPFQGTIRLTILDQSEALIRQNHEEVMDAKPELLAFQRPTIPRNPKGFGYVTFMHLEALRQGTFIKDDTLLVRCEVSTRFDMGGLRKEGFQPRSTDAGV
binding [1]: no binding

B3: Flag-TRAF6-132-530 (domain or fragment, UniProt P70196 132-530)
chain: VKCPNKGCLQKMELRHLEDHQVHCEFALVNCPQCQRPFQKCQVNTHIIEDCPRRQVSCVNCAVSMAYEEKEIHDQSCPLANIICEYCGTILIREQMPNHYDLDCPTAPIPCTFSVFGCHEKMQRNHLARHLQENTQLHMRLLAQAVHNVNLALRPCDAASPSRGCRPEDPNYEETIKQLESRLVRQDHQIRELTAKMETQSMYVGELKRTIRTLEDKVAEMEAQQCNGIYIWKIGNFGMHLKSQEEERPVVIHSPGFYTGRPGYKLCMRLHLQLPTAQRCANYISLFVHTMQGEYDSHLPWPFQGTIRLTILDQSEALIRQNHEEVMDAKPELLAFQRPTIPRNPKGFGYVTFMHLEALRQGTFIKDDTLLVRCEVSTRFDMGGLRKEGFQPRSTDAGV
binding [1]: binds

Results, then the binder that gave them:

binding (HA c-Cbl-1-357): no binding | binding [1]: binds | binding [2]: binds | binding (HA c-Cbl 1-436): binds weakly | binding (HA c-Cbl 1-480): binds | binding (HA c-Cbl 1-421): binds weakly | binding (HA-c-Cbl 1-655): binds
B4: FLAG-tagged wild-type TRAF6 (tumor necrosis factor receptor-associated factor 6) (protein, UniProt P70196 1-530)
chain: MSLLNCENSCGSSQSSSDCCAAMAASCSAAVKDDSVSGSASTGNLSSSFMEEIQGYDVEFDPPLESKYECPICLMALREAVQTPCGHRFCKACIIKSIRDAGHKCPVDNEILLENQLFPDNFAKREILSLTVKCPNKGCLQKMELRHLEDHQVHCEFALVNCPQCQRPFQKCQVNTHIIEDCPRRQVSCVNCAVSMAYEEKEIHDQSCPLANIICEYCGTILIREQMPNHYDLDCPTAPIPCTFSVFGCHEKMQRNHLARHLQENTQLHMRLLAQAVHNVNLALRPCDAASPSRGCRPEDPNYEETIKQLESRLVRQDHQIRELTAKMETQSMYVGELKRTIRTLEDKVAEMEAQQCNGIYIWKIGNFGMHLKSQEEERPVVIHSPGFYTGRPGYKLCMRLHLQLPTAQRCANYISLFVHTMQGEYDSHLPWPFQGTIRLTILDQSEALIRQNHEEVMDAKPELLAFQRPTIPRNPKGFGYVTFMHLEALRQGTFIKDDTLLVRCEVSTRFDMGGLRKEGFQPRSTDAGV

binding [3]: binds | binding [4]: binds
B5: endogenous polyubiquitinated TRAF6 (protein, UniProt P70196 1-530)
chain: B4 chain
modifications: polyubiquitinated (sites not given)

binding [1]: binds
B6: Flag-TRAF6-69-530 (domain or fragment, UniProt P70196 69-530)
chain: ECPICLMALREAVQTPCGHRFCKACIIKSIRDAGHKCPVDNEILLENQLFPDNFAKREILSLTVKCPNKGCLQKMELRHLEDHQVHCEFALVNCPQCQRPFQKCQVNTHIIEDCPRRQVSCVNCAVSMAYEEKEIHDQSCPLANIICEYCGTILIREQMPNHYDLDCPTAPIPCTFSVFGCHEKMQRNHLARHLQENTQLHMRLLAQAVHNVNLALRPCDAASPSRGCRPEDPNYEETIKQLESRLVRQDHQIRELTAKMETQSMYVGELKRTIRTLEDKVAEMEAQQCNGIYIWKIGNFGMHLKSQEEERPVVIHSPGFYTGRPGYKLCMRLHLQLPTAQRCANYISLFVHTMQGEYDSHLPWPFQGTIRLTILDQSEALIRQNHEEVMDAKPELLAFQRPTIPRNPKGFGYVTFMHLEALRQGTFIKDDTLLVRCEVSTRFDMGGLRKEGFQPRSTDAGV

binding [1]: binds
B7: Flag-TRAF6-1-289 (domain or fragment, UniProt P70196 1-289)
chain: MSLLNCENSCGSSQSSSDCCAAMAASCSAAVKDDSVSGSASTGNLSSSFMEEIQGYDVEFDPPLESKYECPICLMALREAVQTPCGHRFCKACIIKSIRDAGHKCPVDNEILLENQLFPDNFAKREILSLTVKCPNKGCLQKMELRHLEDHQVHCEFALVNCPQCQRPFQKCQVNTHIIEDCPRRQVSCVNCAVSMAYEEKEIHDQSCPLANIICEYCGTILIREQMPNHYDLDCPTAPIPCTFSVFGCHEKMQRNHLARHLQENTQLHMRLLAQAVHNVNLALRPCDA
